Results: publication PMC12820563
The other results are listed elsewhere or left out. The list includes weakly bound sequences.

What follows are sequences tested against T1, MBP-FoxP3dN (UniProt Q99JB6) (assay: PD-seq (MBP pull-down with sequencing)). Details: 20 mM Tris-HCl pH 7.5, 100 mM NaCl, 1.5 mM MgCl2, 0.4 uM protein, 0.1 uM dsDNA library, 30 min, room temperature, amylose pull-down; high values mean tight binding; double strand, one strand shown.
T1 sequence: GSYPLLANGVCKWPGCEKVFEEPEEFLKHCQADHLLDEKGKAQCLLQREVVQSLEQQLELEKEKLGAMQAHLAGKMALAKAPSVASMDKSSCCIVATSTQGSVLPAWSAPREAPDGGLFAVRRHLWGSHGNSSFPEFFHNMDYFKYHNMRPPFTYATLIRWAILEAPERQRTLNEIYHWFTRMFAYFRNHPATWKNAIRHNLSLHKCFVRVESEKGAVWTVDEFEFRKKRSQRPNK
“GATGATTGTTCTCCCAGCTGATGAATTCCTTAGGTCGAGTAAACAAATTTTCCTAATCTTTCTGTTCAAGCGCCATCTAC” gave a binding signal (RPM ratio (pull-down/input)) of 0.214.
“GATGATTGTTCTCCCAGCTGATGAATTCATATCCTCGAGTAAACAAATTTTCCTAATCTTTCTGTTCAAGCGCCATCTAC” gave a binding signal (RPM ratio (pull-down/input)) of 0.789.
In the case of “GATGATTGTTCTCCCAGCTGATGAATTGAGAGACTCGAGTAAACAAATTTTCCTAATCTTTCTGTTCAAGCGCCATCTAC”, the binding signal (RPM ratio (pull-down/input)) is reported as 0.476.
In the case of “GATGATTGTTCTCCCAGCTGATGAATTCGGAAGGTCGAGTAAACAAATTTTCCTAATCTTTCTGTTCAAGCGCCATCTAC”, the binding signal (RPM ratio (pull-down/input)) is reported as 0.208.
In the case of “GATGATTGTTCTCCCAGCTGATGAATTCAGAACATCGAGTAAACAAATTTTCCTAATCTTTCTGTTCAAGCGCCATCTAC”, the binding signal (RPM ratio (pull-down/input)) is reported as 0.366.
“GATGATTGTTCTCCCAGCTGATGAATTCATATACTCGAGTAAACAAATTTTCCTAATCTTTCTGTTCAAGCGCCATCTAC” was tested, and the binding signal (RPM ratio (pull-down/input)) was 1.47.
Sequence “GATGATTGTTCTCCCAGCTGATGAATTATCCTCATCGAGTAAACAAATTTTCCTAATCTTTCTGTTCAAGCGCCATCTAC” has a binding signal (RPM ratio (pull-down/input)) of 0.301.
“GATGATTGTTCTCCCAGCTGATGAATTAAAACCTTCGAGTAAACAAATTTTCCTAATCTTTCTGTTCAAGCGCCATCTAC” was tested, and the binding signal (RPM ratio (pull-down/input)) was 0.237.
“GATGATTGTTCTCCCAGCTGATGAATTACATCTTTCGAGTAAACAAATTTTCCTAATCTTTCTGTTCAAGCGCCATCTAC” gave a binding signal (RPM ratio (pull-down/input)) of 0.529.
Sequence “GATGATTGTTCTCCCAGCTGATGAATTCGTGGGGTCGAGTAAACAAATTTTCCTAATCTTTCTGTTCAAGCGCCATCTAC” has a binding signal (RPM ratio (pull-down/input)) of 0.931.
“GATGATTGTTCTCCCAGCTGATGAATTGGCACGATCGAGTAAACAAATTTTCCTAATCTTTCTGTTCAAGCGCCATCTAC” was tested, and the binding signal (RPM ratio (pull-down/input)) was 0.317.
With “GATGATTGTTCTCCCAGCTGATGAATTGGCTCAGTCGAGTAAACAAATTTTCCTAATCTTTCTGTTCAAGCGCCATCTAC” the binding signal (RPM ratio (pull-down/input)) was 0.231.
In the case of “GATGATTGTTCTCCCAGCTGATGAATTAGGTAATTCGAGTAAACAAATTTTCCTAATCTTTCTGTTCAAGCGCCATCTAC”, the binding signal (RPM ratio (pull-down/input)) is reported as 0.922.
With “GATGATTGTTCTCCCAGCTGATGAATTTTGGACGTCGAGTAAACAAATTTTCCTAATCTTTCTGTTCAAGCGCCATCTAC” the binding signal (RPM ratio (pull-down/input)) was 0.301.
“GATGATTGTTCTCCCAGCTGATGAATTGGTTGCTTCGAGTAAACAAATTTTCCTAATCTTTCTGTTCAAGCGCCATCTAC” showed a binding signal (RPM ratio (pull-down/input)) of 2.07.
“GATGATTGTTCTCCCAGCTGATGAATTGAGGGCCTCGAGTAAACAAATTTTCCTAATCTTTCTGTTCAAGCGCCATCTAC” was tested, and the binding signal (RPM ratio (pull-down/input)) was 0.551.
Sequence “GATGATTGTTCTCCCAGCTGATGAATTTCGGAAGTCGAGTAAACAAATTTTCCTAATCTTTCTGTTCAAGCGCCATCTAC” has a binding signal (RPM ratio (pull-down/input)) of 0.188.
In the case of “GATGATTGTTCTCCCAGCTGATGAATTCCTGAAGTCGAGTAAACAAATTTTCCTAATCTTTCTGTTCAAGCGCCATCTAC”, the binding signal (RPM ratio (pull-down/input)) is reported as 0.17.
Work on “GATGATTGTTCTCCCAGCTGATGAATTGCCATGGTCGAGTAAACAAATTTTCCTAATCTTTCTGTTCAAGCGCCATCTAC” yielded a binding signal (RPM ratio (pull-down/input)) of 0.786.
With “GATGATTGTTCTCCCAGCTGATGAATTCCCATTCTCGAGTAAACAAATTTTCCTAATCTTTCTGTTCAAGCGCCATCTAC” the binding signal (RPM ratio (pull-down/input)) was 0.381.
“GATGATTGTTCTCCCAGCTGATGAATTCCATCAGTCGAGTAAACAAATTTTCCTAATCTTTCTGTTCAAGCGCCATCTAC” gave a binding signal (RPM ratio (pull-down/input)) of 0.359.
In the case of “GATGATTGTTCTCCCAGCTGATGAATTTACCAAGTCGAGTAAACAAATTTTCCTAATCTTTCTGTTCAAGCGCCATCTAC”, the binding signal (RPM ratio (pull-down/input)) is reported as 0.276.
With “GATGATTGTTCTCCCAGCTGATGAATTTCAACGTTCGAGTAAACAAATTTTCCTAATCTTTCTGTTCAAGCGCCATCTAC” the binding signal (RPM ratio (pull-down/input)) was 0.406.
In the case of “GATGATTGTTCTCCCAGCTGATGAATTACCACAGTCGAGTAAACAAATTTTCCTAATCTTTCTGTTCAAGCGCCATCTAC”, the binding signal (RPM ratio (pull-down/input)) is reported as 0.302.
“GATGATTGTTCTCCCAGCTGATGAATTGCCAGTGTCGAGTAAACAAATTTTCCTAATCTTTCTGTTCAAGCGCCATCTAC” showed a binding signal (RPM ratio (pull-down/input)) of 0.694.
In the case of “GATGATTGTTCTCCCAGCTGATGAATTTGTAGCATCGAGTAAACAAATTTTCCTAATCTTTCTGTTCAAGCGCCATCTAC”, the binding signal (RPM ratio (pull-down/input)) is reported as 4.88.
Sequence “GATGATTGTTCTCCCAGCTGATGAATTGGGTTCGTCGAGTAAACAAATTTTCCTAATCTTTCTGTTCAAGCGCCATCTAC” has a binding signal (RPM ratio (pull-down/input)) of 0.58.
Work on “GATGATTGTTCTCCCAGCTGATGAATTGCATGAGTCGAGTAAACAAATTTTCCTAATCTTTCTGTTCAAGCGCCATCTAC” yielded a binding signal (RPM ratio (pull-down/input)) of 0.828.
Work on “GATGATTGTTCTCCCAGCTGATGAATTCAAAACTTCGAGTAAACAAATTTTCCTAATCTTTCTGTTCAAGCGCCATCTAC” yielded a binding signal (RPM ratio (pull-down/input)) of 0.315.
Work on “GATGATTGTTCTCCCAGCTGATGAATTTATGTGCTCGAGTAAACAAATTTTCCTAATCTTTCTGTTCAAGCGCCATCTAC” yielded a binding signal (RPM ratio (pull-down/input)) of 3.7.
With “GATGATTGTTCTCCCAGCTGATGAATTTGAATTGTCGAGTAAACAAATTTTCCTAATCTTTCTGTTCAAGCGCCATCTAC” the binding signal (RPM ratio (pull-down/input)) was 1.01.
Work on “GATGATTGTTCTCCCAGCTGATGAATTAGATCTTTCGAGTAAACAAATTTTCCTAATCTTTCTGTTCAAGCGCCATCTAC” yielded a binding signal (RPM ratio (pull-down/input)) of 0.293.
For “GATGATTGTTCTCCCAGCTGATGAATTCTCTGGATCGAGTAAACAAATTTTCCTAATCTTTCTGTTCAAGCGCCATCTAC”, the binding signal (RPM ratio (pull-down/input)) was 0.161.
Work on “GATGATTGTTCTCCCAGCTGATGAATTGCTGTTTTCGAGTAAACAAATTTTCCTAATCTTTCTGTTCAAGCGCCATCTAC” yielded a binding signal (RPM ratio (pull-down/input)) of 2.65.
With “GATGATTGTTCTCCCAGCTGATGAATTCCATAGTTCGAGTAAACAAATTTTCCTAATCTTTCTGTTCAAGCGCCATCTAC” the binding signal (RPM ratio (pull-down/input)) was 0.473.
For “GATGATTGTTCTCCCAGCTGATGAATTATGTGCGTCGAGTAAACAAATTTTCCTAATCTTTCTGTTCAAGCGCCATCTAC”, the binding signal (RPM ratio (pull-down/input)) was 1.53.
“GATGATTGTTCTCCCAGCTGATGAATTTTAGTCGTCGAGTAAACAAATTTTCCTAATCTTTCTGTTCAAGCGCCATCTAC” gave a binding signal (RPM ratio (pull-down/input)) of 0.454.
Sequence “GATGATTGTTCTCCCAGCTGATGAATTCAAAGAATCGAGTAAACAAATTTTCCTAATCTTTCTGTTCAAGCGCCATCTAC” has a binding signal (RPM ratio (pull-down/input)) of 0.192.
Work on “GATGATTGTTCTCCCAGCTGATGAATTTCGCTGTTCGAGTAAACAAATTTTCCTAATCTTTCTGTTCAAGCGCCATCTAC” yielded a binding signal (RPM ratio (pull-down/input)) of 1.22.
For “GATGATTGTTCTCCCAGCTGATGAATTAATTAAATCGAGTAAACAAATTTTCCTAATCTTTCTGTTCAAGCGCCATCTAC”, the binding signal (RPM ratio (pull-down/input)) was 0.248.
